Data as given in paper PMC5423623.
These are yes or no findings as the source states them, for the method shown. Binding seen in cells or lysates may run through a third protein. Some binding calls cover weakened binding; strength is not graded here.

Protein sequences, listed by entry. Tags and fused reporters are not part of them. Lines headed by an entry give the natural chain unless they say otherwise; changes in a name come on top.
UniProt P62142: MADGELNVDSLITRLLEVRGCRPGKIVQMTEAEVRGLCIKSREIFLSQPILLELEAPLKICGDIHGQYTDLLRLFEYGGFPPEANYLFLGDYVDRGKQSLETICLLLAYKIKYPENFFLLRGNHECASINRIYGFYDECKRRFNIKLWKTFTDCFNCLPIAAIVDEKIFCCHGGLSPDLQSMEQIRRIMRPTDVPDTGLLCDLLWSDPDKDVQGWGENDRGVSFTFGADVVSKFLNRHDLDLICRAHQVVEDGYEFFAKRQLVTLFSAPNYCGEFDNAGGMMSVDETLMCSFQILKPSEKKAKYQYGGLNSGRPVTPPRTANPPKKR
UniProt P60881: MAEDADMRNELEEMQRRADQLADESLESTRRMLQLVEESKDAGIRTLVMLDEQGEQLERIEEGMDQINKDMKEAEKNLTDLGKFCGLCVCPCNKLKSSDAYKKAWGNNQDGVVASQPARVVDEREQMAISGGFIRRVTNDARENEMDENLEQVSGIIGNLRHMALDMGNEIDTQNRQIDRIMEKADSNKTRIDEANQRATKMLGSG

Legend:
Experiment in all cases: co-IP; reciprocal immunoprecipitation from precleared B50 neuroblastoma cell lysate with anti-SNAP-25, anti-MYPT1^1-296 or anti-PP1cδ on protein-A Sepharose; IP buffer 50 mM Tris-HCl pH 7.4, 150 mM NaCl, 1 mM EDTA, 1% Triton X-100; 90 min at 4°C; Western blot; control: rabbit non-immune serum
[1] = target: T1, myosin phosphatase targeting subunit (MYPT1), endogenous in B50 neuroblastoma cells (rat (endogenous in B50; the species of the line is from memory, the paper does not state it)) (UniProt Q10728)
T1 sequence: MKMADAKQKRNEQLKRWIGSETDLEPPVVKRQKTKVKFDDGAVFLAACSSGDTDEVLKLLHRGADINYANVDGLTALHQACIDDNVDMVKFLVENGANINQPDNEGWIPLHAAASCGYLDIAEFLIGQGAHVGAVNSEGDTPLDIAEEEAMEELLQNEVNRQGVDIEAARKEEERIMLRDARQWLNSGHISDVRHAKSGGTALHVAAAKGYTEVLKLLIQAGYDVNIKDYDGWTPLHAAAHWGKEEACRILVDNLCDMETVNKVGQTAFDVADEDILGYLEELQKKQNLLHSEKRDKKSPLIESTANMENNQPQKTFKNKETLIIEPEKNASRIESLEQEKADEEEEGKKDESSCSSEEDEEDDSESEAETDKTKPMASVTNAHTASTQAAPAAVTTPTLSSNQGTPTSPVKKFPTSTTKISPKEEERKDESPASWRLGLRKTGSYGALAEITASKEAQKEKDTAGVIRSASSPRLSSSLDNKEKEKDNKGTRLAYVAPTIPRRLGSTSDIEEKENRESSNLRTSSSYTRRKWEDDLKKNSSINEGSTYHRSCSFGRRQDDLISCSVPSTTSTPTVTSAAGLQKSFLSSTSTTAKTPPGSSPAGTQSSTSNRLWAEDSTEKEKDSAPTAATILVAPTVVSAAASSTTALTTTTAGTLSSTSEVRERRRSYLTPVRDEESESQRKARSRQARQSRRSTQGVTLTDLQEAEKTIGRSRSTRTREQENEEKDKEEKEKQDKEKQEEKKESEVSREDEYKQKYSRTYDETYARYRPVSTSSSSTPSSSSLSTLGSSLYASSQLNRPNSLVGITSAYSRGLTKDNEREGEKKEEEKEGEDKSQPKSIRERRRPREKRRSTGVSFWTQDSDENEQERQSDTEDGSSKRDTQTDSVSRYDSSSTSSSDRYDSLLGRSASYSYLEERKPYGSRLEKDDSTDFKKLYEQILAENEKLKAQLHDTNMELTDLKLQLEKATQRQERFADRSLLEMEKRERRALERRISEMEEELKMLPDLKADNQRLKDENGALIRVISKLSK

[2] = target: protein phosphatase-1 catalytic subunit delta (PP1cδ), endogenous in B50 neuroblastoma cells (rat (endogenous in B50; the species of the line is from memory, the paper does not state it)) (UniProt P62142)
[3] = target: synaptosomal-associated protein of 25 kDa (SNAP-25), endogenous in B50 neuroblastoma cells (rat (endogenous in B50; the species of the line is from memory, the paper does not state it)) (UniProt P60881)

synaptosomal-associated protein of 25 kDa (SNAP-25), endogenous in B50 neuroblastoma cells (from UniProt P60881 1-206)
binding [1]: binds
binding [2]: no binding

protein phosphatase-1 catalytic subunit delta (PP1cδ), endogenous in B50 neuroblastoma cells (from UniProt P62142 1-327) (enzyme)
binding [1]: binds

B1: myosin phosphatase targeting subunit (MYPT1), endogenous in B50 neuroblastoma cells (protein, UniProt Q10728 1-1032)
chain: MKMADAKQKRNEQLKRWIGSETDLEPPVVKRQKTKVKFDDGAVFLAACSSGDTDEVLKLLHRGADINYANVDGLTALHQACIDDNVDMVKFLVENGANINQPDNEGWIPLHAAASCGYLDIAEFLIGQGAHVGAVNSEGDTPLDIAEEEAMEELLQNEVNRQGVDIEAARKEEERIMLRDARQWLNSGHISDVRHAKSGGTALHVAAAKGYTEVLKLLIQAGYDVNIKDYDGWTPLHAAAHWGKEEACRILVDNLCDMETVNKVGQTAFDVADEDILGYLEELQKKQNLLHSEKRDKKSPLIESTANMENNQPQKTFKNKETLIIEPEKNASRIESLEQEKADEEEEGKKDESSCSSEEDEEDDSESEAETDKTKPMASVTNAHTASTQAAPAAVTTPTLSSNQGTPTSPVKKFPTSTTKISPKEEERKDESPASWRLGLRKTGSYGALAEITASKEAQKEKDTAGVIRSASSPRLSSSLDNKEKEKDNKGTRLAYVAPTIPRRLGSTSDIEEKENRESSNLRTSSSYTRRKWEDDLKKNSSINEGSTYHRSCSFGRRQDDLISCSVPSTTSTPTVTSAAGLQKSFLSSTSTTAKTPPGSSPAGTQSSTSNRLWAEDSTEKEKDSAPTAATILVAPTVVSAAASSTTALTTTTAGTLSSTSEVRERRRSYLTPVRDEESESQRKARSRQARQSRRSTQGVTLTDLQEAEKTIGRSRSTRTREQENEEKDKEEKEKQDKEKQEEKKESEVSREDEYKQKYSRTYDETYARYRPVSTSSSSTPSSSSLSTLGSSLYASSQLNRPNSLVGITSAYSRGLTKDNEREGEKKEEEKEGEDKSQPKSIRERRRPREKRRSTGVSFWTQDSDENEQERQSDTEDGSSKRDTQTDSVSRYDSSSTSSSDRYDSLLGRSASYSYLEERKPYGSRLEKDDSTDFKKLYEQILAENEKLKAQLHDTNMELTDLKLQLEKATQRQERFADRSLLEMEKRERRALERRISEMEEELKMLPDLKADNQRLKDENGALIRVISKLSK
binding [2]: binds
binding [3]: binds
